Test results published in PubChem BioAssay AID1476 (National Center for Advancing Translational Sciences (NCATS), 2009).
Where “and” joins values, the source holds several entries; their conditions need not be identical. Identical values can stand only once. In all, about 200,000 compounds went through this assay and about 4,500 (2.2%) were called active. The shares of active, inactive and inconclusive entries below differ from those in the screen. Calls come from the whole dose curve; as a rule, active = well fitted inhibition curve with a large enough effect; inconclusive = small, poorly fitted or top-dose-only effect, or effect the other way; inactive = flat fitted curve, though single readings scatter. A potency beside an inconclusive call is a rough fit, not a confirmed value.

These compounds were tested against Cruzipain (Trypanosoma cruzi) (UniProt P25779) (assay: qHTS Assay for Promiscuous and Specific Inhibitors of Cruzain (without detergent)). Conditions: purified cruzain, Z-FR-AMC fluorescence, no detergent.
Procedure, shortened: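 Detergent-free condition (0.00005% Triton X-100) in acetate buffer pH 5.5 with DTT. 1.5 nM enzyme and compound were pre-mixed 15 min, then 2 uM Z-FR-AMC substrate added; reaction progress from fluorescence change between first and third reads (60 s).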
Note: nearly all actives have a fitted effect of over 40% in size.
Potency is the fitted concentration of half-maximal effect; tags give direction and shape of the fitted curve.
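Throughout, for max response, negative = inhibition: plate controls were enzyme without inhibitor for no effect and buffer without enzyme for full effect.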

UniProt P25779, sequence (P25779 whole entry, looked up): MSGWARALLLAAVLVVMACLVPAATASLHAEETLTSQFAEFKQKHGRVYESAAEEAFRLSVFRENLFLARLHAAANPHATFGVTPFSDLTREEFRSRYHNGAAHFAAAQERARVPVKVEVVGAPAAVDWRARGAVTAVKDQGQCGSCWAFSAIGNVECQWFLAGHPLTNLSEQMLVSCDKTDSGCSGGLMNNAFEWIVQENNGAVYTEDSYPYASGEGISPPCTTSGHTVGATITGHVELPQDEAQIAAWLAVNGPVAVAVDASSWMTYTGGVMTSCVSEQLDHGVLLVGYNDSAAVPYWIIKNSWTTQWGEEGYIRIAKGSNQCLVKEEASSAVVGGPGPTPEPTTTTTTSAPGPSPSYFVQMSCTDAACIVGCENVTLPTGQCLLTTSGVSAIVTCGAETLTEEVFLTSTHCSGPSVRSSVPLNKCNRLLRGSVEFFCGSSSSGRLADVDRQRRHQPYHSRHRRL

Structure (SMILES) | max response, negative = inhibition | Potency
O=C(CSc1nnc(-c2ccccc2Cl)o1)N1CCCc2ccccc21 | inactive: 2.7% | 
Cc1ccc2nc(/C(C#N)=C\c3ccc(OC(=O)c4cccs4)cc3)[nH]c2c1 |  | inconclusive: 31.6 µM [inhibitor, single point]
COc1ccc(S(=O)(=O)N2CCOC2CNC(=O)C(=O)NCCc2c[nH]c3ccccc23)cc1 (stereo not drawn) |  | inconclusive: 39.8 µM [inhibitor, single point]
COc1cc2nc(C3CC3)n(NC(=O)c3ccc(Cl)cc3)c(=O)c2cc1OC |  | inconclusive: 39.8 µM [activator, single point]
COc1ccc(C2Nc3ccccc3C(=O)N2Cc2ccco2)cc1COc1ccc(F)cc1 (stereo not drawn) |  | active: 25.1 µM
Cc1ccc(S(=O)(=O)c2c(O)cc(C)c(NS(=O)(=O)c3ccc(Br)cc3)c2C)cc1 |  | inconclusive: 20 µM [inhibitor, single point]
CC(CCc1ccccc1)NC(=O)c1ccc(NC(=O)c2ccccc2)cc1 (stereo not drawn) |  | inconclusive: 31.6 µM [inhibitor, single point]
O=C(/C=C/c1cccc(OCc2ccccc2)c1)c1cccnc1 |  | inconclusive: 31.6 µM [activator, single point]
Cc1nnc(NC(=O)CSc2cn(Cc3ccccc3)c3ccccc23)s1 |  | inconclusive: 39.8 µM [inhibitor, single point]
Cc1cc(O)c(C(c2ccccc2)N2CCCCC2)c(=O)n1Cc1ccco1 (stereo not drawn) |  | inconclusive: 39.8 µM [inhibitor, single point]
COc1ccc(NC(=O)Nc2cc(NC(=O)Nc3ccc(OC)cc3)c(C)nc2C)cc1 |  | inconclusive: 3.16 µM [activator, partial curve]
c1ccc(Nc2nc(-c3cccnc3)cs2)nc1 |  | inconclusive: 39.8 µM [inhibitor, single point]
CC(C)(C)OC(=O)N1CCC(c2c(C(=O)NCc3ccccc3)cnn2-c2cccc(F)c2)CC1 |  | inconclusive: 39.8 µM [activator, single point]
Cc1ccc(C(=O)C(OC(=O)CN2C(=O)c3ccccc3C2=O)c2ccccc2)cc1C (stereo not drawn) |  | inconclusive: 31.6 µM [inhibitor, single point]
Cc1ccc(N=Cc2c(C)[nH]n(-c3nc4ccccc4[nH]3)c2=O)cc1 |  | inconclusive: 31.6 µM [activator, single point]
COc1ccc(-c2noc(CN(C)S(=O)(=O)c3c(C)cc(C)cc3C)n2)cc1OC |  | inconclusive: 39.8 µM [activator, single point]
CCC(C(=O)Nc1cccc(Cl)c1C)n1nc(C)c2sc3ccccc3c2c1=O (stereo not drawn) | inactive: -5.82% | 
COC(=O)[C@@]1(Cc2ccc(F)cc2)[C@H]2c3cc(C(=O)N(C)C)n(Cc4nc5ccccc5[nH]4)c3C[C@H]2CN1C(=O)c1ccccc1 |  | inconclusive: 31.6 µM [activator, single point] and inconclusive: 12.6 µM [activator, partial curve, poor fit]
COc1cccc(-c2nc(CS(=O)(=O)CC(=O)NCCCOC(C)C)c(C)o2)c1 |  | inconclusive: 39.8 µM [activator, single point]
CCOC(=O)c1c(NC(=O)C2CCCN(S(=O)(=O)c3ccc(C)cc3)C2)sc2c1CCCC2 (stereo not drawn) |  | active: 15.8 µM
CCOc1ccc(C2C=C(c3ccc(C)cc3)Nc3ncnn32)cc1 (stereo not drawn) |  | inconclusive: 25.1 µM [activator, single point]

Structure (SMILES) | max response, negative = inhibition | Potency
CSc1cccc(NC(=O)c2cnn(-c3ccc(F)cc3)c2-n2cccc2)c1 | inactive: -14.3% | 
COc1ccc(C2NC(=O)c3sc(=S)n(-c4ccccc4)c3N2)cc1 (stereo not drawn) |  | active: 25.1 µM
O=c1cc(-c2ccccc2O)oc2ccc3ccccc3c12 |  | inconclusive: 12.6 µM [inhibitor, full curve, poor fit]
O=C(CNC(=O)c1ccco1)OCN1C(=O)c2ccccc2C1=O |  | inconclusive: 25.1 µM [inhibitor, single point]
CN1c2ccccc2C2(C)CCCC3=Cc4cc([N+](=O)[O-])cc([N+](=O)[O-])c4OC312 (stereo not drawn) |  | inconclusive: 39.8 µM [inhibitor, single point]
O=C(c1ccc2c(c1)N(Cc1ccccc1)C(=O)c1ccccc1S2)N1CCCC1 |  | inconclusive: 39.8 µM [activator, single point]
CCOc1ccc(CN2CCN(C(=O)c3ccccc3)CC2)cc1 | inactive: 6.81% | 
CC(=O)OCCCNc1cc(Sc2ccc(C)cc2)c2nonc2c1[N+](=O)[O-] |  | inconclusive: 39.8 µM [activator, single point]
CCc1cc(C(C)=O)c(O)cc1OCCCCCC(C)(C)c1nn[nH]n1 |  | inconclusive: 39.8 µM [activator, single point]
CCc1nc2ccc(C(=O)N3CCN(c4cc(Cl)ccc4C)CC3)cc2nc1CC |  | inconclusive: 31.6 µM [activator, single point]
O=C1c2ccccc2C(=O)N1CC(=O)N1c2ccccc2Sc2ccc(C(F)(F)F)cc21 |  | inconclusive: 31.6 µM [inhibitor, single point]
CCN(c1cccc(C)c1)S(=O)(=O)c1cc(Br)cc2c1N(C(C)=O)C(C)C2 (stereo not drawn) |  | inconclusive: 39.8 µM [activator, single point]
CC(NC(=O)c1ccc2c(c1)N(Cc1ccc(Cl)cc1)C(=O)CS2)c1ccccc1 (stereo not drawn) |  | inconclusive: 39.8 µM [inhibitor, single point]
O=c1c2ccccc2c(C=Nc2ccc(S(=O)(=O)N3CCCCC3)cc2)c(O)n1-c1ccc(Cl)cn1 |  | active: 7.94 µM
Cc1ccc(S(=O)(=O)c2nc(C)oc2NCc2ccccc2)cc1 |  | active: 20 µM
COc1ccc(NC(=O)c2c(C)oc3ccc(O)c(CN4CCC(C)CC4)c23)cc1Cl | inactive: -17.5% | 
COc1ccc(CCNC(=O)c2ccc3c(c2)N(Cc2ccccc2)C(=O)c2ccccc2S3=O)cc1OC (stereo not drawn) |  | inconclusive: 39.8 µM [activator, single point]
COc1ccc(-c2nc3cnc(N(C)C)nc3n(CCc3ccccc3)c2=O)cc1 | inactive: 1.58% | 
CCCCCCC(=O)N=Nc1c(O)[nH]c2ccc([N+](=O)[O-])cc12 |  | active: 25.1 µM
COc1ccc(S(=O)(=O)N(CCO)c2ccccc2CN(C)CC=Cc2ccc(Cl)cc2)cc1 |  | inconclusive: 31.6 µM [inhibitor, single point]
CCN(CC)S(=O)(=O)c1ccc(NC(=O)CN(c2ccccc2)S(=O)(=O)N(C)C)cc1 | inactive: 11.9% | 

Structure (SMILES) | max response, negative = inhibition | Potency
CCS(=O)(=O)c1ncc(N(Cc2ccccc2)Cc2ccco2)c(C(=O)Nc2cccc(Cl)c2C)n1 |  | inconclusive: 39.8 µM [inhibitor, single point]
CCOC(=O)c1c(C2COc3ccccc3O2)csc1NC(=O)c1ccccc1 (stereo not drawn) |  | active: 25.1 µM
Cc1c(Cl)cccc1-c1ccc(CNCCSc2nnnn2-c2ccccc2)o1 |  | active: 7.94 µM
CC1(C)C(O)CC[C@]2(C)C1CC[C@@]1(C)C2C(=O)C=C2[C@@H]3C[C@@](C)(C(=O)O)CC[C@@]3(C)CCC21C (stereo partly drawn) |  | inconclusive: 39.8 µM [activator, single point]
O=C(/C=C1\SC(=O)N(CC(=O)Nc2ccc(Cl)cc2)C1=O)Nc1ccc(F)cc1 |  | inconclusive: 39.8 µM [inhibitor, single point]
Cc1cc(Cl)ccc1N=c1ssnc1Cl |  | inconclusive: 20 µM [inhibitor, partial curve]
COc1ccc(OC)c(CCNC(=O)c2cc3c(s2)-c2c(C)cccc2OC3)c1 |  | inconclusive: 39.8 µM [inhibitor, single point]
CC(C)Oc1ccccc1-c1nc(SCC(=O)c2ccc(F)cc2)n[nH]1 | inactive: 17.5% | 
CC(=O)COC(=O)CNC(=O)c1ccc(Br)cc1 | inactive: -23.9% | 
Cc1ccc(Nc2c(-c3c[nH]c4ccccc34)nc3ccccn23)cc1 |  | inconclusive: 31.6 µM [inhibitor, single point]
O=C(NCCS(=O)(=O)N1CCN(c2ccc(F)cc2)CC1)C(c1ccccc1)c1ccccc1 |  | inconclusive: 39.8 µM [activator, single point]
CC1Cc2ccccc2N1Cc1nc2cc(Cl)ccc2c(=O)[nH]1 (stereo not drawn) |  | active: 25.1 µM
CCOC(=O)C(CC)n1nnc2sc(-c3ccccc3)cc2c1=O (stereo not drawn) | inactive: -2.08% | 
CC1(C)C(=O)C(c2ccccc2)=C2CN3C(=O)N(CCc4ccccc4)C(=O)C3(Cc3ccccc3)C=C21 (stereo not drawn) | inactive: 7.18% | 
O=C(COC(=O)c1c2c(nc3ccccc13)CCN(Cc1ccccc1)C2)Nc1c(F)cccc1F |  | inconclusive: 39.8 µM [inhibitor, single point]
Cc1ccc2c(c1)nnn2C1CCN(CC(=O)NCCc2nc3ccccc3[nH]2)CC1 |  | inconclusive: 25.1 µM [activator, single point]
Cc1ccccc1OCC(=O)Nc1ccc(-c2nc3ccccc3o2)cc1 | inactive: 7.61% | 
CCc1cccc(NC(=O)CCc2nc3cccnc3n2Cc2ccc(OC)cc2)c1 |  | inconclusive: 39.8 µM [activator, single point]
Cc1ccc(S(=O)(=O)NCCCCCC(N)=O)cc1 |  | inconclusive: 39.8 µM [activator, single point]
COc1ccc(C(=O)N/N=C/c2ccc(OC(=O)c3ccccc3)cc2)cc1 |  | inconclusive: 31.6 µM [inhibitor, partial curve, poor fit]
CCC(C(=O)Nc1nnc(-c2ccco2)s1)c1ccccc1 (stereo not drawn) |  | inconclusive: 31.6 µM [inhibitor, single point]
